# The whole screen tested about 360,000 compounds, of which about 520 (0.14%) were called active. Inconclusive results, whose numbers are uncertain, are shown with a selection of clear calls. Calls come from the whole dose curve; as a rule, active = well fitted inhibition curve with a large enough effect; inconclusive = small, poorly fitted or top-dose-only effect; inactive = no such curve, though single readings can be large or run the other way. No potency is given beside an inconclusive call; the fits are too rough.
# Target: Rap guanine nucleotide exchange factor 3 (Homo sapiens) (UniProt O95398)
# Sequence of UniProt O95398 (O95398 whole entry, looked up): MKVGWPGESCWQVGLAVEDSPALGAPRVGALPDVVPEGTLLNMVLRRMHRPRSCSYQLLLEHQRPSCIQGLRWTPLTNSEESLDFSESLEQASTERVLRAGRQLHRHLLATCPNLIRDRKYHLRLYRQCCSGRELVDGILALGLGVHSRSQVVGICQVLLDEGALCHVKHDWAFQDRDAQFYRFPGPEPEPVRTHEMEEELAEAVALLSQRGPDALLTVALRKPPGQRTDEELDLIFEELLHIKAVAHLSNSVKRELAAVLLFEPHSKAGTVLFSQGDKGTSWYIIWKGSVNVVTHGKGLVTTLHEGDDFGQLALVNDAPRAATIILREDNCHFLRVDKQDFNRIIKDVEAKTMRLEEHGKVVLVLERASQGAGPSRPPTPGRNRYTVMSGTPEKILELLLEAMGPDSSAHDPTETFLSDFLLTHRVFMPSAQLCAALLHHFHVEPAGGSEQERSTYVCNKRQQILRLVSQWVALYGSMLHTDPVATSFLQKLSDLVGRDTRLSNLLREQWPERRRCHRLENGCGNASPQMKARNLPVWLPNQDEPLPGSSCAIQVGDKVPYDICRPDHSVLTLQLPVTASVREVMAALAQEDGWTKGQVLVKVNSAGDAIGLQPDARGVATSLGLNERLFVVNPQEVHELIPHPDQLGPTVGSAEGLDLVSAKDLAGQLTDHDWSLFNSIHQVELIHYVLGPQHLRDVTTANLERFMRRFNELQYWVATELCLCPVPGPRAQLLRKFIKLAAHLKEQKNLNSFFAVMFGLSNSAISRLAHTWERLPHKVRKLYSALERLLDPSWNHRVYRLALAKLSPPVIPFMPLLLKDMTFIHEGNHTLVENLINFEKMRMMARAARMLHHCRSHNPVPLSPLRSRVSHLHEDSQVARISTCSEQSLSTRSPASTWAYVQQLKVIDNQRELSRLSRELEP
# Assay: qHTS for Antagonist of cAMP-regulated guanine nucleotide exchange factor 3 (EPAC1): primary screen; note: nearly all actives have a fitted effect of over 50% in size;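 for activity change, negative = inhibition: plate controls were vehicle for no effect and positive control for full effect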
# Conditions: EPAC1 GEF assay, Rap1b-BODIPY-GDP exchange fluorescence; activity change, negative = inhibition: at 115 µM (top of the series)
# Potency is the fitted concentration of half-maximal effect; tags give direction and shape of the fitted curve.
SMILES,Potency,"activity change, negative = inhibition"
CC(C)CN(CC(C)C)c1ccc(/C=N/n2cnnc2)cc1[N+](=O)[O-],"inconclusive [inhibitor, partial curve]",–
Cc1nc2ccc(NS(=O)(=O)c3ccc(C)c(C)c3)cc2s1,–,inactive: 0.0795%
Cc1ccc(S(=O)(=O)N(CC(=O)NCc2cccs2)c2ccccc2)cc1,"inconclusive [inhibitor, partial curve, poor fit]",–
CN(C)S(=O)(=O)c1cc(NC(=O)CSc2ncc(C(F)(F)F)cc2Cl)ccc1Cl,"inconclusive [inhibitor, partial curve]",–
Cc1cccc(NC(=O)Cn2nnc3ccccc32)c1,–,inactive: 2.47%
C=C1c2cccc(O)c2C(=O)C2C(=O)[C@]3(O)C(=O)C(C(N)=O)C(=O)[C@@H](N(C)C)[C@@H]3[C@@H](O)[C@H]12 (stereo not given in full),"inconclusive [inhibitor, partial curve]",–
CC(C)CSC1=NSC2=NC(=O)/C(=C\c3coc4ccccc4c3=O)C(=N)N12,–,inactive: 53.7%
CCOC(=O)c1cc2c(=O)n3ccccc3nc2n(CC2CCCO2)c1=NC(=O)/C=C/c1ccccc1 (stereo not given),"inconclusive [inhibitor, single point]",–
CCOc1ccc2nc(/N=C/c3c(C)[nH]n(-c4ccc(C)cc4)c3=O)sc2c1,"inconclusive [inhibitor, partial curve]",–
Cc1ccnc(Nc2nc(-c3ccc(O)c(O)c3)cs2)c1,"inconclusive [inhibitor, partial curve]",–
COc1cccc(CN2CC(C(=O)NCCc3ccccc3C(F)(F)F)CCC2=O)c1 (stereo not given),"inconclusive [inhibitor, partial curve, poor fit]",–
CC1CCc2c(c3ccccc3n2C(=O)CCl)C1 (stereo not given),"inconclusive [inhibitor, partial curve]",–
Cc1ccc(C)c(N2CCN(C(=O)c3cc(S(=O)(=O)N4CCOCC4)cn3C)CC2)c1,"inconclusive [inhibitor, partial curve, poor fit]",–
C[C@H]1CN([C@@H](C)CO)C(=O)c2cccc(NC(=O)Nc3ccc(C(F)(F)F)cc3)c2O[C@H]1CN(C)C,"inconclusive [inhibitor, single point]",–
CO/N=C(\Cn1ncc(N2CCCC2)c(Cl)c1=O)c1ccc(Cl)cc1,–,inactive: 10.3%
Cc1ccc(C(=O)OCC(=O)c2ccc(CC(=O)N3CCOCC3)s2)cc1C,"inconclusive [inhibitor, partial curve]",–
C#CCOCCOCCOCCNc1nc(N2CCN(C(=O)CCCCCCCCCCNC(=O)[C@H](CCCCN)n3cc(CCO)nn3)CC2)nc(N2CCN(C(=O)CCCCCCCCCCNC(=O)[C@H](CCCN=C(N)N)n3cc(C[C@@H](C)CC)nn3)CC2)n1,"inconclusive [inhibitor, full curve]",–
O=c1c2ccccc2oc2cc(C#Cc3ccccn3)ccc12,–,inactive: 2.49%
CCCCN(C(=O)c1cccc(S(=O)(=O)N2CCN(Cc3ccccc3)CC2)c1)c1ccccc1,"inconclusive [inhibitor, full curve, poor fit]",–
Cc1cc(Br)cn2c(Cc3ccsc3)c(-c3ccco3)nc12,"inconclusive [inhibitor, partial curve]",–

SMILES,Potency,"activity change, negative = inhibition"
CC(=O)Nc1ccc(-c2csc(Nc3ncccn3)n2)cc1,–,inactive: -8.94%
Cc1ccc(S/C=C\C(=O)c2ccccc2)cc1,"inconclusive [inhibitor, partial curve]",–
CSc1nc(SCCO)c2sc3nc(-c4ccco4)c4c(c3c2n1)CC(C)(C)OC4,"inconclusive [inhibitor, partial curve]",–
CCN(CC)S(=O)(=O)c1ccc(NC2c3ncccc3C(=O)N2Cc2ccccc2)cc1 (stereo not given),"inconclusive [inhibitor, single point]",–
O=C(/C=C/c1ccc(S(=O)(=O)N2CCOCC2)cc1)Nc1cc(F)ccc1F,"inconclusive [inhibitor, single point]",–
O=C(CN1C(=O)/C(=C2\SC(=S)N(CCS(=O)(=O)O)C2=O)c2ccccc21)Nc1cccc(Br)c1,"inconclusive [inhibitor, full curve]",–
CCOc1cc(/C=C2\N=C(SCC)SC2=O)cc([N+](=O)[O-])c1OC(C)=O,"inconclusive [inhibitor, partial curve]",–
Cc1ccc(-c2cc(C(=O)N/N=C/c3ccccc3O)n[nH]2)o1,"inconclusive [inhibitor, full curve, poor fit]",–
CCC(SC1=N/C(=C/c2ccccc2)C(=O)N1c1ccccc1)C(=O)Nc1cc(C)on1 (stereo not given),"inconclusive [inhibitor, full curve, poor fit]",–
Cc1cccc(NC(=O)CS(=O)(=O)c2c[nH]c3ccccc23)c1C,–,inactive: 1.65%
O=C(N/C=N/OCc1ccc(Cl)cc1Cl)NOCc1ncc(C(F)(F)F)cc1Cl,"inconclusive [inhibitor, partial curve]",–
O=C(O)c1ccc(/C=N/NC(=O)c2cc(-c3ccc4c5c(cccc35)CC4)n[nH]2)cc1,"inconclusive [inhibitor, single point]",–
CC(C)CCNC(=O)CN(C(=O)CCC(=O)Nc1ccccn1)c1ccc(F)c(Cl)c1,"inconclusive [inhibitor, single point]",–
CC(=O)Nc1cc[n+](C(C)C(=O)c2ccc(Br)cc2)cc1 (stereo not given),"inconclusive [inhibitor, full curve, poor fit]",–
COc1cc(Br)c(C(=O)c2nccc3cc(OC)c(OC)cc23)cc1OC,–,inactive: -5.39%
COc1cc2ccccc2cc1C(=O)Nc1ccc(Cl)cn1,"inconclusive [inhibitor, single point]",–
Nc1c(N=Nc2cccc(Cl)c2)c(=O)[nH]n1-c1ccccc1,"inconclusive [inhibitor, partial curve, poor fit]",–
COc1ccc(CNC(=O)c2ccc(-c3cccnc3)c3ccoc23)cc1OC,"inconclusive [inhibitor, single point]",–
C=CCNc1nc(-c2ccc(Cl)cc2)cs1,"inconclusive [inhibitor, single point]",–
Cc1cccc(OCCC(=O)Nc2ccc(F)c(Cl)c2)c1,"inconclusive [inhibitor, partial curve, poor fit]",–

SMILES,Potency,"activity change, negative = inhibition"
COc1cc(C2(c3ccc(O)c(OC)c3)C(=O)Nc3c(C)cc(Br)cc32)ccc1O,"inconclusive [inhibitor, single point]",–
CCOC(=O)c1c(C)nc2ccc(Cl)cc2c1-c1ccccc1,"inconclusive [inhibitor, partial curve]",–
CCC(C)(C)C1CCc2c(sc(N)c2C(N)=O)C1 (stereo not given),"inconclusive [inhibitor, partial curve]",–
CCOc1ccc(N2C(=O)/C(=C/c3ccccc3OCC(=O)OC)N(CC(=O)OC)C2=S)cc1,"inconclusive [inhibitor, partial curve, poor fit]",–
Cc1ccc(-c2nn(-c3ccccc3)cc2NC(=O)c2ccccc2)cc1,"inconclusive [inhibitor, partial curve, poor fit]",–
COc1ccc(/C=C/c2cc(C(F)(F)F)[nH]c(=O)n2)cc1OC,–,inactive: -11.4%
Cc1ccc(/C=C/C2=NN(C)C(=O)CC2)cc1,"inconclusive [inhibitor, partial curve]",–
COc1ccc(-c2c(C(F)(F)F)[nH]n3c(=O)cc(-c4ccccc4)nc23)cc1,"inconclusive [inhibitor, partial curve, poor fit]",–
CCC(C)(C)n1nnnc1C(c1cc2cc3c(cc2[nH]c1=O)OCO3)N1CCCCC1 (stereo not given),"inconclusive [inhibitor, partial curve, poor fit]",–
Cc1cc(-c2ccc(S(=O)(=O)Nc3ccc(C#N)cc3)s2)on1,"inconclusive [inhibitor, single point]",–
S=C(Nc1ccc(Cl)cc1Cl)NC1CCN(Cc2ccccc2)CC1,"inconclusive [inhibitor, partial curve, poor fit]",–
CC(=O)c1cccc(NC(=O)C2Cc3c(-c4cccc(F)c4)ccnc3O2)c1 (stereo not given),"inconclusive [inhibitor, single point]",–
O=C(c1ccsc1)N1CCCC(N2CCOCC2)C1 (stereo not given),"inconclusive [inhibitor, full curve, poor fit]",–
O=C(Nc1ccccc1NC(=O)c1ccco1)c1ccccc1,"inconclusive [inhibitor, full curve, poor fit]",–
Cc1cc2c(C)nc(N/N=C/c3ccccc3)nc2o1,"inconclusive [inhibitor, partial curve]",–
COc1ccc(NC(=O)c2ccco2)cc1NC(=O)c1ccc(C#N)cc1F,"inconclusive [inhibitor, single point]",–
CCn1c(C)nc2cc(C(=O)N/N=C/c3ccc(O)c(O)c3O)ccc21,"inconclusive [inhibitor, single point]",–
O=C(Nc1cccc(Cl)c1)OCCOC(=O)Nc1cccc(Cl)c1,–,inactive: -26.2%
O=C(/C=C/c1ccccc1)NCCc1ccc2c(c1)OCCO2,"inconclusive [inhibitor, full curve, poor fit]",–
COc1ccc(OC)c(NC(=O)c2cccc(N3C(=O)C4C5C=CC(C6CC56)C4C3=O)c2)c1 (stereo not given),"inconclusive [inhibitor, single point]",–

# Source: PubChem BioAssay AID720709 (National Center for Advancing Translational Sciences (NCATS), 2013)
